# Data as given in the BET-seq Pho4 binding data (Le et al. 2018).
# Some of the results follow. Values were computed here from the reads of four pooled replicates and scatter widely.
# Target: T1, Pho4 (S. cerevisiae) (UniProt P07270)
# T1 sequence: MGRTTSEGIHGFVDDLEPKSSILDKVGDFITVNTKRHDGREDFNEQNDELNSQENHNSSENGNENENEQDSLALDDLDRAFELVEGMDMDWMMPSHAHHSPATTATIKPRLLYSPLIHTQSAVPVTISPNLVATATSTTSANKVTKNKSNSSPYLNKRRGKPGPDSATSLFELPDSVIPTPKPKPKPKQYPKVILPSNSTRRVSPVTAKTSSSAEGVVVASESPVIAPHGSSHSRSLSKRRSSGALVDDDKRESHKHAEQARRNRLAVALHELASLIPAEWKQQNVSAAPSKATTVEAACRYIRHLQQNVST
# Test: relative binding free energy (BET-seq); higher = weaker binding
# Conditions: reference: library average
row,Sequence,relative binding free energy
1,GGACTCACGTGAATGG,0.44 kcal/mol
2,GAAACCACGTGGGGTT,0.05 kcal/mol
3,AATTGCACGTGGCGGG,-0.01 kcal/mol
4,GATTGCACGTGAGGAT,0.24 kcal/mol
5,TGGTACACGTGTTCGA,0 kcal/mol
6,TTAGGCACGTGTGGAG,-0.06 kcal/mol
7,AGCGTCACGTGTGTGT,0.08 kcal/mol
8,GTAAGCACGTGTTTGA,0.05 kcal/mol
9,GTTTGCACGTGTTATA,0.06 kcal/mol
10,GTTATCACGTGGTTAT,0.13 kcal/mol
11,TGAGTCACGTGCTTTT,-0.03 kcal/mol
12,GTTGACACGTGAAGGC,0.29 kcal/mol
13,GTTTGCACGTGGTTTA,0.05 kcal/mol
14,GGCTGCACGTGCAGGT,-0.04 kcal/mol
15,GTTGGCACGTGAAGGG,0.13 kcal/mol
16,ATGGTCACGTGCCGGG,-0.01 kcal/mol
17,ATTAGCACGTGTGAGG,-0.03 kcal/mol
18,ATGGGCACGTGGGCCG,-0.23 kcal/mol
19,TAGGACACGTGGGAGG,-0.04 kcal/mol
20,AGTGACACGTGGGGGC,-0.19 kcal/mol
21,AGTTTCACGTGCAGTG,0.18 kcal/mol
22,GTCGGCACGTGTATGG,0 kcal/mol
23,AGATGCACGTGGGTGA,-0.13 kcal/mol

row,Sequence,relative binding free energy
1,ATTGTCACGTGATGTC,0.15 kcal/mol
2,TTAAACACGTGTGGTG,-0.03 kcal/mol
3,TCGTGCACGTGTCGAG,0.1 kcal/mol
4,ACGTGCACGTGATGTT,-0.04 kcal/mol
5,TTATACACGTGAGGTG,0.27 kcal/mol
6,GGACGCACGTGTAGGT,0.01 kcal/mol
7,AAATACACGTGTAGGT,-0.05 kcal/mol
8,GAGGCCACGTGTAGGG,-0.09 kcal/mol
9,AAATTCACGTGTGATG,0.26 kcal/mol
10,ATCGACACGTGTATGT,0.19 kcal/mol
11,AATGTCACGTGATCGT,0.2 kcal/mol
12,TGAAGCACGTGTGCAT,-0.02 kcal/mol
13,GCTTGCACGTGTTGGG,0.11 kcal/mol
14,TCGGTCACGTGGCGTT,-0.02 kcal/mol
15,TGTATCACGTGGGAGT,0.05 kcal/mol
16,ATATTCACGTGGCGGA,0.27 kcal/mol
17,CTTTACACGTGTAAGG,0.18 kcal/mol
18,TTTCACACGTGAATTG,0.3 kcal/mol
19,TAGTACACGTGGTGGG,0 kcal/mol
20,TGGTGCACGTGCAGGT,0.01 kcal/mol
21,AGAGGCACGTGAGATT,0.17 kcal/mol
22,TGAAGCACGTGATTTG,0.01 kcal/mol
23,TTTGACACGTGCGGTA,-0.17 kcal/mol

row,Sequence,relative binding free energy
1,AGGTCCACGTGAGTTT,0.26 kcal/mol
2,CGGAGCACGTGTGCGG,-0.23 kcal/mol
3,AGGTGCACGTGGGAGT,-0.2 kcal/mol
4,TATGGCACGTGGCCGG,-0.21 kcal/mol
5,AGTGGCACGTGGACTG,-0.16 kcal/mol
6,TCAGACACGTGTATGT,0.07 kcal/mol
7,CTATTCACGTGTGGTA,0.26 kcal/mol
8,TATGGCACGTGAAAAG,-0.02 kcal/mol
9,GGTGACACGTGGGACT,-0.1 kcal/mol
10,TATTGCACGTGATAAT,0.07 kcal/mol
11,TGTAACACGTGAGTGA,0.15 kcal/mol
12,TTTAGCACGTGAAGCT,0.08 kcal/mol
13,GTCTTCACGTGCTAGG,0.38 kcal/mol
14,TGGTGCACGTGACAGG,0.07 kcal/mol
15,CTTGGCACGTGGCTTG,-0.26 kcal/mol
16,TGAATCACGTGGCGGT,0.05 kcal/mol
17,GAGTGCACGTGTTGAA,0.17 kcal/mol
18,GGATACACGTGGGTTA,-0.01 kcal/mol
19,TGGATCACGTGTTAAA,0.13 kcal/mol
20,TGAGCCACGTGGGGAG,-0.03 kcal/mol
21,AGGCACACGTGGTGGA,-0.02 kcal/mol
22,AGGATCACGTGCCGGG,0.15 kcal/mol
23,CTGATCACGTGGTTTT,0.15 kcal/mol

row,Sequence,relative binding free energy
1,TCCGTCACGTGTTAGG,0.19 kcal/mol
2,ACGGGCACGTGGGTAT,-0.24 kcal/mol
3,TCGGTCACGTGGGGTC,0.07 kcal/mol
4,GGCGTCACGTGCGGGG,0.01 kcal/mol
5,TTGCACACGTGAGTTG,0.24 kcal/mol
6,AGCCACACGTGGGTGG,0.02 kcal/mol
7,TGGGTCACGTGGCAGG,0.01 kcal/mol
8,TGTGACACGTGCCGTT,-0.04 kcal/mol
9,TATACCACGTGGTTGG,-0.21 kcal/mol
10,GATTGCACGTGTTCGT,0.15 kcal/mol
11,GATAACACGTGGAGTT,0.07 kcal/mol
12,TGAGTCACGTGAATAT,0.22 kcal/mol
13,GTTTCCACGTGTTGTA,0.07 kcal/mol
14,TTGGGCACGTGGGCAA,-0.17 kcal/mol
15,GTTGTCACGTGTATCT,0.15 kcal/mol
16,CTTTTCACGTGGTATT,0.25 kcal/mol
17,TGATTCACGTGATATT,0.35 kcal/mol
18,CGCGTCACGTGGGCGG,-0.09 kcal/mol
19,GTATTCACGTGATTAG,0.29 kcal/mol
20,ACGTTCACGTGCTGTT,0.19 kcal/mol
21,GTGTACACGTGTTGGG,0.11 kcal/mol
22,TGGTTCACGTGTAAAT,0.49 kcal/mol
23,AGCGGCACGTGGAGCG,-0.16 kcal/mol

row,Sequence,relative binding free energy
1,TCTGGCACGTGGTATT,-0.13 kcal/mol
2,ATGGGCACGTGGCGCA,-0.3 kcal/mol
3,TGGAGCACGTGGGTGG,-0.18 kcal/mol
4,TGATTCACGTGGGAGT,0.3 kcal/mol
5,TTTAACACGTGAGTTT,0.32 kcal/mol
6,GGGCTCACGTGTTGAT,0.23 kcal/mol
7,TTTCACACGTGGGGGG,0.14 kcal/mol
8,ATGTGCACGTGGAGAG,-0.09 kcal/mol
9,CTGGTCACGTGTGGTT,0.17 kcal/mol
10,CGGTGCACGTGCGGAG,-0.16 kcal/mol
11,TATTTCACGTGTGCGT,0.43 kcal/mol
12,TGGCTCACGTGATTGC,0.39 kcal/mol
13,TGTCGCACGTGATAGG,0.15 kcal/mol
14,AGGTTCACGTGTTAGA,0.32 kcal/mol
15,TAGGACACGTGGATTG,-0.09 kcal/mol
16,ATTATCACGTGGCGTA,0.2 kcal/mol
17,TTAGGCACGTGAATTA,0.17 kcal/mol
18,GCATTCACGTGGGTGC,0.14 kcal/mol
19,GTGGACACGTGGGCAG,-0.14 kcal/mol
20,GTTAGCACGTGGCTCG,-0.06 kcal/mol
21,CGTAACACGTGTTGAT,0.02 kcal/mol
22,GGTTTCACGTGGCGCG,0.32 kcal/mol
23,TCTTTCACGTGGCGGG,0.3 kcal/mol
